# Results from PubChem BioAssay AID686978 (National Center for Advancing Translational Sciences (NCATS), 2013).
# The whole screen tested about 420,000 compounds, of which about 64,000 (15%) were called active. The inconclusive results got no clear call from the source; some entries with a clear call stand among them for comparison. The call rests on the fitted dose curve; in most records, active means well fitted inhibition curve with a large enough effect; inconclusive means small, poorly fitted or top-dose-only effect; inactive means flat fitted curve, though single readings scatter. No potency is given beside an inconclusive call; the fits are too rough. Some structures have more than one record in an assay (separate samples or runs), and their calls can disagree.
# Assay: qHTS for Inhibitors of human tyrosyl-DNA phosphodiesterase 1 (TDP1): qHTS in cells in absence of CPT; further: nearly all actives have a fitted effect of over 55% in size
# Details: DT40 Tdp1-/- hTDP1 cells, no CPT, ATP luminescence, 48 h; activity change, negative = growth inhibition: at 46.2 µM (top of the series) unless noted
# Procedure, shortened: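 Chicken DT40 Tdp1-/- cells stably complemented with human TDP1 were seeded at 400 cells/well with DMSO in place of 20 nM camptothecin. After compound pinning, cells grew at least 48 hr at 37 °C; viability read by CellTiter-Glo luminescence.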
# On the % scale 0 is the no-effect control and ±100 the full control effect; potency means the concentration at half of the fitted maximal effect; tags describe the fitted curve by direction and shape.
Compound,Potency,"activity change, negative = growth inhibition"
Cc1ccccc1CNC(=O)c1cc2ccccc2o1,"inconclusive [inhibitor, single point]",
O=C(Nc1cccc(-c2nc3ccccc3s2)c1)c1cc(=O)c2ccccc2o1,active: 2.06 µM,
Cc1cccc(OCC(=O)Nc2ccc(S(=O)(=O)N(Cc3ccccc3)c3ccccc3)cc2)c1,active: 3.26 µM,
CCOCCCN(C)C1CCN(C(=O)c2oc3ccccc3c2NC(=O)c2ccc(F)cc2)CC1,,inactive: -8.73%
O=C(NNC(=O)C1CCCCC1)C(=O)NC1CCCCC1,,inactive: -7.8%
CCn1c(C)nc2cc(C(=O)NNC(=S)Nc3ccc(Cl)cc3)ccc21,"inconclusive [inhibitor, single point]",
Cc1cccc(NC(=O)NC2CCCCCCC2)c1C,,inactive: 3.1%
COc1ccc(C2/C=C\CN(S(=O)(=O)c3ccc(C)cc3)[C@H](Cc3ccccc3)C(=O)N2Cc2ccc(F)cc2)cc1 (some centres undefined),"inconclusive [inhibitor, single point]",
Cc1noc(C)c1S(=O)(=O)N1CCCC(C(=O)Nc2nccs2)C1 (centres undefined),"inconclusive [inhibitor, single point]",
CCN1C(=O)N/C(=C/c2ccc(C)o2)C1=O,active: 20.6 µM,
COCCn1c(=O)[nH]c2cc(C(=O)N3CCN(c4ccc(F)cc4)CC3)ccc2c1=O,"inconclusive [inhibitor, single point]",
Cc1cc(Br)cc(C)c1OCC(=O)Nc1ccc(S(=O)(=O)Nc2ncccn2)cc1,,inactive: -4.36%
CC1CCC(C(C)C)C(OC(=O)CSc2nnc(N)s2)C1 (centres undefined),,inactive: -29.1%
Cc1ccc(C(C(=O)NC2CCCC2)N(Cc2ccc(F)cc2)C(=O)c2snc(C(N)=O)c2N)o1 (centres undefined),"inconclusive [inhibitor, single point]",
Cc1nc(NC(=O)c2ccco2)sc1-c1csc(Nc2ccc(Cl)cc2Cl)n1,active: 14.6 µM,
O=c1c2c(nc3cc(-c4ccc(Br)cc4)[nH]n13)CCCC2,"inconclusive [inhibitor, single point]",
Cc1cccc(C(CC(=O)O)NC(=O)C(F)(F)F)c1 (centres undefined),,inactive: 28.2%
CCCn1c(SCCc2ccccc2)nc2c1c(=O)[nH]c(=O)n2C,"inconclusive [inhibitor, single point]",
CCCCn1c(N)c(N(CCC(C)C)C(=O)c2ccc(COc3ccccc3)o2)c(=O)[nH]c1=O,,inactive: -8.96%
Nc1c(N(CCC2=CCCCC2)C(=O)COc2ccc(F)cc2Cl)c(=O)[nH]c(=O)n1Cc1ccccc1,active: 6.51 µM,
CCOCc1c(C(=O)Nc2cc(OCC)c(N3CCOCC3)cc2OCC)oc2ccccc12,"inconclusive [inhibitor, single point]",
Cc1cc(C)n(C(C[N+](=O)[O-])c2ccc(Cl)cc2)n1 (centres undefined),active: 2.31 µM,
CC1=NN(c2cccc(C(=O)O)c2)C(=O)/C1=C\C=C/c1ccccc1,active: 1.3 µM,
O=C(NCCc1csc(-c2ccc(C(F)(F)F)cc2)n1)c1ccccc1Cl,"inconclusive [inhibitor, single point]",
CCCCCOC(=O)C1=C(C)NC(=O)NC1c1ccccc1OCC (centres undefined),"inconclusive [inhibitor, single point]",

Compound,Potency,"activity change, negative = growth inhibition"
CCOC(=O)c1ccc(-n2c(=S)sc3c(=O)[nH]c(C)nc32)cc1,active: 16.4 µM,
CCc1ccc(C(=O)NC(=S)Nc2ccc(N3CCOCC3)cc2)cc1,"inconclusive [inhibitor, single point]",
CC(C)(C)N(NC(=O)OCc1ccccc1)C(=O)c1ccccc1Cl,,inactive: -23.6%
C[C@H](CO)N1C[C@H](C)[C@@H](CN(C)S(=O)(=O)c2cccs2)Oc2ccc(NS(=O)(=O)c3cn(C)cn3)cc2C1=O,,inactive: 6.84%
N/C(=N\OC(=O)c1cc(Cl)ccc1Cl)c1ccccn1,,inactive: -6.13%
Cc1cc(C(=O)COC(=O)c2n[nH]c(=O)c3ccccc23)c(C)n1C,,inactive: -26%
Cc1ccc(Nc2cc(=O)[nH]c(=O)[nH]2)cc1Cl,"inconclusive [inhibitor, single point]",
O=C(COC(=O)/C=C/c1ccc(Cl)cc1)NC(=O)NCc1ccccc1,,inactive: -19%
Cc1ccc(CNC(=O)C(=O)NCC(c2cccs2)S(=O)(=O)c2ccccc2)cc1 (centres undefined),,inactive: 3.97%
Cc1cc(N2CCOCC2)nc2ccc(NC(=S)NCc3ccc4c(c3)OCO4)cc12,active: 18.4 µM,
CCOC(=O)c1c(NC(=O)CCc2ccc(CC)o2)sc(C)c1C,"inconclusive [inhibitor, single point]",
CC(=O)C(N=Nc1ccccc1)(Sc1nnc(-c2ccccc2)n1-c1ccccc1)C(=O)Nc1ccccc1 (centres undefined),"inconclusive [inhibitor, single point]",
O=C(Nc1ccc(N2CCCCC2)cc1)c1ccc2c(c1)OCCO2,"inconclusive [inhibitor, partial curve]",
Cc1ccc(S(=O)(=O)c2c(C)nn(C(C)(C)C)c2OC(=O)c2ccc(Br)o2)cc1,"inconclusive [inhibitor, single point]",
O=C(Nc1nc(-c2ccc(F)cc2)cs1)c1cccnc1,"inconclusive [inhibitor, partial curve]",
COC(=O)c1ccc(C23CC4(C2)[C@H](CN(CC2CCCCC2)[C@@H]4c2ccccc2)C3c2ccccc2)cc1 (some centres undefined),"inconclusive [inhibitor, single point]",
CC(C)C(=O)N1CCN(c2ccc([N+](=O)[O-])c(NC(C)c3ccccc3)c2)CC1 (centres undefined),active: 16.4 µM,
O=C(Nc1ccccn1)NC12CC3CC(CC(C3)C1)C2,,inconclusive: -34.4% [inhibitor]
CC(=O)c1ccc(COC(=O)Cc2ccc([N+](=O)[O-])cc2)cc1,,inactive: -7.53%
CC(=O)c1ccc(OC(=O)/C=C/c2ccccc2)cc1,,inactive: -18.4%
CCOc1ccc(C(=O)Nc2ccccc2-c2ccccc2)cc1Cl,"inconclusive [inhibitor, partial curve]",
CC1=Nc2ccc(C)cc2/C1=C/c1c(N)n2c(S(=O)(=O)C(C)C)nsc2nc1=O,"inconclusive [inhibitor, partial curve, poor fit]",
CCOC1(c2ccccc2)CC1C(=O)N/N=C/c1cccc([N+](=O)[O-])c1 (centres undefined),"inconclusive [inhibitor, single point]",
CCN(CC)c1ccc(/C=c2\sc3nnc(-c4ccccc4Cl)n3c2=O)cc1,"inconclusive [inhibitor, single point]",
C#CCNC(=O)c1csc([C@@H]2O[C@H](CO)[C@@H](O)[C@H]2O)n1,"inconclusive [inhibitor, partial curve, poor fit]",

Compound,Potency,"activity change, negative = growth inhibition"
CN(C)CC1C2CCC(C2)C1O (centres undefined),,inconclusive: -30.8% [inhibitor]
CC(Cc1cccc(C(F)(F)F)c1)NCCOC(=O)c1ccccc1 (centres undefined),active: 18.4 µM,
O=C(Nc1cccc(Cl)c1)Nc1ccccc1-n1ccnc1,,inactive: 0.0304%
COc1ccc(C(=O)NNC(=S)NC(=O)c2cccc([N+](=O)[O-])c2)cc1,active: 18.4 µM,
Cc1ccc(C(=O)OCC(=O)Nc2c(C)n(C)n(-c3ccccc3)c2=O)cc1[N+](=O)[O-],,inactive: -14.7%
Cc1cc(C(=O)O)ccc1[C@H](N)C(=O)O,,inactive: -18.9%
COc1cc(OC)cc(C(=O)NC(=S)NNC(=O)Cc2cccs2)c1,"inconclusive [inhibitor, single point]",
COCCNC(=S)NCc1cccs1,,inactive: -0.454%
Cc1ccc([C@@H]2C[C@H]3[C@@H](CN2S(=O)(=O)c2ccc(Cl)cc2)C(=O)C[C@@H](c2ccc(Cl)cc2)N3S(=O)(=O)c2ccccc2C)cc1,"inconclusive [inhibitor, partial curve]",
CC(C)C(C)NC(=O)COc1ccc(OCc2ccccc2)cc1 (centres undefined),"inconclusive [inhibitor, single point]",
CN(C)CCN=Cc1c(O)n(Cc2ccc3c(c2)OCO3)c(=O)c2ccccc12,,inactive: -10.5%
CCCn1nnnc1NC(=O)COc1ccc(Cl)c(C)c1,"inconclusive [inhibitor, single point]",
Cc1ccc(S(=O)(=O)N2CCOCC2)cc1C(=O)OCC(=O)NCc1ccccc1,"inconclusive [inhibitor, single point]",
CCN(C(=O)COC(=O)c1cc(OC)c(OC)cc1[N+](=O)[O-])C1CCS(=O)(=O)C1 (centres undefined),,inactive: 11.7%
Nc1ncc(Br)cc1S(=O)(=O)N1CCCCCC1,"inconclusive [inhibitor, single point]",
CCOC(=O)C1=C(CNCc2ccc(F)cc2)NC(=O)NC1c1cccc([N+](=O)[O-])c1 (centres undefined),"inconclusive [inhibitor, single point]",
Cc1cc(C)c(S(=O)(=O)NCC2CCC(C(=O)NCc3ccccn3)CC2)c(C)c1 (centres undefined),,inactive: 11.6%
O=C(NNC(=O)c1csc(-c2cccs2)n1)c1ccc(Cl)cc1,"inconclusive [inhibitor, single point]",
CC1(C)CN(c2cccc(Br)c2)C1=O,,inactive: -3.16%
Cc1ccc(C(=O)c2cc([N+](=O)[O-])ccc2N2CCOCC2)cc1C,active: 0.731 µM,
CC(=O)Nc1ccc(CC(=O)Nc2ccc3c(c2)OC2(CCCC2)O3)cc1,,inactive: -24.3%
CN(C)c1ncc(S(=O)(=O)c2ccccc2)c(=O)[nH]1,,inactive: -3.79%
CN(Cc1cccc2cnccc12)C(=O)CCc1nnc(CCc2ccccc2)o1,"inconclusive [inhibitor, single point]",
O=C1CCC(=O)N(O)CCCCCNC(=O)CCC(=O)N(O)CCCCNC(=O)CCC(=O)N(O)CCCCCN1,"inconclusive [inhibitor, single point]",
